# Where “and” joins values, the source holds several entries; their conditions need not be identical. Equal entries are not always repeated. Inconclusive results, whose numbers are uncertain, are shown with a selection of clear calls. Potencies beside an inconclusive call are fits to weak or partial responses and may not hold up. Some structures have more than one record in an assay (separate samples or runs), and their calls can disagree. Calls of active or inactive are those of the source. Calls follow the shape of the dose curve; as a rule, active = well fitted curve in the direction sought with a large enough effect in the repeat runs; inconclusive = weak or mixed curves; inactive = no such curve, though single readings can be large; an effect the other way counts as inactive or inconclusive.
# Assay: A CellTox Green Cytotoxicity Assay to monitor cytotoxicity in HepG2 cells - 16 hour (AID 1224876); also: nearly all actives have a fitted effect of over 45% in size
# Conditions: CellTox Green fluorescence; series mostly up to 35.3 µM
# Method in brief: (§1)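 HepG2 cells were seeded together with the CellTox Green dye at 600 cells/well, left 5 h at 37 C/5% CO2, then given compounds in DMSO. Fluorescence from dye bound to dead-cell DNA was read repeatedly over 40 h of treatment at 37 C.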
# Potency is read from the fitted curve at half-maximal effect; tags tell the direction and shape of the fitted curve.
row,Structure (SMILES),Potency
1,Cc1oncc1C(=O)Nc1ccc(C(F)(F)F)cc1,"inconclusive: 54.9 µM [activator, partial curve, poor fit] and inactive"
2,CC(C)CCCCCCc1ccc(O)cc1,active: 44.4 µM and active: 27.5 µM
3,CCOc1ccc([N+](=O)[O-])cc1,"inconclusive: 55.8 µM [activator, single point]"
4,CCCCC(CC)COC(=O)CC(C(=O)OCC(CC)CCCC)S(=O)(=O)O (centres undefined),active: 33.4 µM and active: 38.9 µM
5,CCCCOCCOCCOC(C)=O,"inconclusive: 54.9 µM [activator, single point]"
6,O=C1CCCCCN1,"inconclusive: 55.1 µM [activator, single point]"
7,CCCCC/C(C=O)=C\c1ccccc1,"inconclusive: 61.7 µM [activator, single point]"
8,CC(O)C(=O)O (centres undefined),"inconclusive: 1.55 µM [activator, partial curve] and inconclusive: 15.1 µM [activator, partial curve, poor fit]"
9,Cn1cnc2c1c(=O)[nH]c(=O)n2C,inactive

# Assay: A CellTox Green Cytotoxicity Assay to monitor cytotoxicity in HepG2 cells - 24 hour (AID 1224878); also: nearly all actives have a fitted effect of over 45% in size
# Conditions: CellTox Green fluorescence; series mostly up to 76.8 µM
# Method in brief: as §1
row,Structure (SMILES),Potency
1,COCCCN,inactive
2,Cc1oncc1C(=O)Nc1ccc(C(F)(F)F)cc1,"inconclusive: 49 µM [activator, single point]"
3,CC(C)CCCCCCc1ccc(O)cc1,active: 22.3 µM and active: 38.9 µM
4,Cc1cc2nc3c(=O)[nH]c(=O)nc-3n(C[C@H](O)[C@H](O)[C@H](O)CO)c2cc1C,active: 43.2 µM and active: 40.5 µM and active: 11.7 µM
5,CCOc1ccc([N+](=O)[O-])cc1,"inconclusive: 55.8 µM [activator, single point]"
6,CCCCOCCOCCOC(C)=O,"inconclusive: 54.9 µM [activator, single point]"
7,O=C1CCCCCN1,"inconclusive: 61.8 µM [activator, single point]"
8,CCCCCCCCCCCCCC(=O)OC(C)C,inactive
9,CCCCC/C(C=O)=C\c1ccccc1,"inconclusive: 61.7 µM [activator, single point]"
10,CCCCCCO,"inconclusive: 61.7 µM [activator, single point]"

# Assay: A CellTox Green Cytotoxicity Assay to monitor cytotoxicity in HepG2 cells - 40 hour (AID 1224879); also: nearly all actives have a fitted effect of over 40% in size
# Conditions: CellTox Green fluorescence; series mostly up to 76.8 µM
# Method in brief: as §1
row,Structure (SMILES),Potency
1,O=CCc1ccccc1,"inconclusive: 61.7 µM [activator, partial curve, poor fit]"
2,Cc1oncc1C(=O)Nc1ccc(C(F)(F)F)cc1,active: 54.9 µM
3,CC(C)CCCCCCc1ccc(O)cc1,active: 14 µM and active: 43.6 µM
4,CCOc1ccc([N+](=O)[O-])cc1,"inconclusive: 55.8 µM [activator, single point]"
5,Cc1c(N(C)C)c(=O)n(-c2ccccc2)n1C,inactive
6,CCCCC(CC)COC(=O)CC(C(=O)OCC(CC)CCCC)S(=O)(=O)O (centres undefined),active: 42 µM and active: 43.6 µM
7,CCCCOCCOCCOC(C)=O,"inconclusive: 54.9 µM [activator, single point]"
8,O=C1CCCCCN1,"inconclusive: 61.8 µM [activator, partial curve, poor fit]"
9,Cc1cc(Cc2ccc(N)c(C)c2)ccc1N,"inconclusive: 21.9 µM [activator, single point]"
10,CCCCC/C(C=O)=C\c1ccccc1,"inconclusive: 61.7 µM [activator, single point]"
11,OC1C(O)C(O)C(O)C(O)C1O (centres undefined),"inconclusive: 54.9 µM [activator, single point]"

# Assay: qHTS RealTime-Glo MT Cell Viability Assay in HEK293 cells - 0 hour (AID 1224880); also: nearly all actives have a fitted effect of over 45% in size
# Conditions: RealTime-Glo luminescence; series mostly up to 76.8 µM
# Method in brief: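 HEK293 cells mixed with RealTime-Glo reagents (NanoLuc plus cell-permeant prosubstrate) at 600 cells/well, preincubated 5 h at 37 C/5% CO2, then given 23 nL compound in DMSO. Nonlytic luminescence from viable cells was read at 0, 8, 16, 24, 32 and 40 h.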
row,Structure (SMILES),Potency
1,CC(O)CO (centres undefined),inactive
2,Oc1ccc(O)cc1,"inconclusive: 54.6 µM [rising, single point]"
3,CCCCCCCO,inactive
4,CCCCOCCOCCOCCO,inactive
5,OC1C(O)C(O)C(O)C(O)C1O (centres undefined),inactive

# Assay: A CellTox Green Cytotoxicity Assay to monitor cytotoxicity in HEK293 cells - 32 hour (AID 1224881); also: nearly all actives have a fitted effect of over 40% in size
# Conditions: CellTox Green fluorescence; series mostly up to 76.8 µM
# Method in brief: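 HEK293 cells premixed with CellTox Green dye were seeded at 600 cells/well and left 5 h at 37 C/5% CO2 before pin transfer of 23 nL compound in DMSO. Fluorescence from dye bound to dead-cell DNA was read during 40 h treatment.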
row,Structure (SMILES),Potency
1,O=C(O)c1ccc2c(c1)C(=O)OC2=O,"inconclusive: 21.9 µM [activator, single point]"
2,OCCO,"inconclusive: 60 µM [activator, single point] and inactive"
3,C[C@]12CC[C@@H]3c4ccc(O)cc4CC[C@H]3[C@@H]1CCC2=O,"inconclusive: 48.1 µM [activator, single point]"
4,c1ccc2n[nH]nc2c1,"inconclusive: 9.5 µM [activator, single point]"
5,CCOc1ccc([N+](=O)[O-])cc1,active: 44.3 µM
6,CCCCC(CC)COC(=O)CC(C(=O)OCC(CC)CCCC)S(=O)(=O)O (centres undefined),"inconclusive: 42 µM [activator, partial curve, poor fit]"
7,O=P(O)(O)O,"inconclusive: 5.58 µM [activator, single point]"
8,Oc1ccc(O)cc1,"inconclusive: 54.6 µM [activator, partial curve, poor fit]"
9,CCCCC/C(C=O)=C\c1ccccc1,"inactive and inconclusive: 61.7 µM [activator, partial curve, poor fit]"

# — PubChem BioAssay (Tox21)
